The inconclusive results got no clear call from the source; some entries with a clear call stand among them for comparison. Potencies of inconclusive entries are left out as doubtful fits. Active and inactive are the calls of the source. Calls come from the whole dose curve; as a rule, active = well fitted inhibition curve with a large enough effect; inconclusive = small, poorly fitted or top-dose-only effect; inactive = flat fitted curve, though single readings scatter.
Each compound was assayed against Voltage-gated inwardly rectifying potassium channel KCNH2 (Homo sapiens) (UniProt Q12809) (assay: qHTS Assay for Small Molecule Inhibitors of the Human hERG Channel Activity (AID 588834;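 note: lower thallium flux fluorescence means stronger hERG block; nearly all actives have a fitted effect of over 50% in size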; for activity change, negative = inhibition: top concentration of the series differs between compounds)). Details: U2OS BacMam hERG, FluxOR thallium flux fluorescence; series mostly up to 46.1 µM; activity change, negative = inhibition: at the top concentration.
Sequence of UniProt Q12809 (Q12809 whole entry, looked up): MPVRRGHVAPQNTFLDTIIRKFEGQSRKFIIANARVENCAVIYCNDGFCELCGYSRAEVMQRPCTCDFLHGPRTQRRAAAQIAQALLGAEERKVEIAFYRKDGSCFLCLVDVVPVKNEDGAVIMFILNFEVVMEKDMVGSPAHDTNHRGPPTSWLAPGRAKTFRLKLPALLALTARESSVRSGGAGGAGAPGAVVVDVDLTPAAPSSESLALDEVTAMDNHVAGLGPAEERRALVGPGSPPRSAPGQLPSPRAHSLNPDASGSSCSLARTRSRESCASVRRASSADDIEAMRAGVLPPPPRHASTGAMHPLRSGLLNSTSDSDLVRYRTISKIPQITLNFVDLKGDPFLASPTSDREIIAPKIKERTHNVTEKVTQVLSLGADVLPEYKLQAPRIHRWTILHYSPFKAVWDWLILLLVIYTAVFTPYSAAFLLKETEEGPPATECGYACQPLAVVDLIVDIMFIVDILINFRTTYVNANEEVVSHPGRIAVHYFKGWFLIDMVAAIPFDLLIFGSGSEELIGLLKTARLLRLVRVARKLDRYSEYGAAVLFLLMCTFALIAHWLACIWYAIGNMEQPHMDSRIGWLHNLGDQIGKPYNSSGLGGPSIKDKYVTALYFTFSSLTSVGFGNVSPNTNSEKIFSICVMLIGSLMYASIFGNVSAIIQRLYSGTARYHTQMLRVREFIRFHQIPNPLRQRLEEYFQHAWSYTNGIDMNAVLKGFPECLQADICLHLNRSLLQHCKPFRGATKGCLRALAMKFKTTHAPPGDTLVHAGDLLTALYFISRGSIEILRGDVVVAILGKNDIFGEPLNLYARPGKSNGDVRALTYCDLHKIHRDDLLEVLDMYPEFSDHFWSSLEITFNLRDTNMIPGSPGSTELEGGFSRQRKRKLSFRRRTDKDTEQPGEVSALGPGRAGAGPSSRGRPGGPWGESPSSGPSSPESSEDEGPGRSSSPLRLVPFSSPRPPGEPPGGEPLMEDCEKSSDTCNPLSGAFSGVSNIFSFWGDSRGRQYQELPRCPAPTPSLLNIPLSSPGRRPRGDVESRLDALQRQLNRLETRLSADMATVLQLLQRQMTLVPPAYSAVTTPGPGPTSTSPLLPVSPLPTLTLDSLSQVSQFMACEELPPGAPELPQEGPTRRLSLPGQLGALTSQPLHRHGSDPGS
Description: NIH Chemical Genomics Center [NCGC]
National Institutes of Environmental Health Sciences [NIEHS]
National Toxicology Program [NTP]
We have developed a 1536-well cell-based assay for quantitative high throughput screening (qHTS) to determine in vitro hERG channel blockage as a measure of cardio toxicity with small molecules. This particular assay uses the U2OS cell line which is derived from human osteosarcoma.
NCGC Assay Protocol Summary:
HERG assay (FluxORTM thallium flux assay) was initially developed by Invitrogen/Molecular Probes, and then miniaturized into 1536-well plate in a homogeneous format by NCGC. This assay measures the activity of potassium channel using thallium dye (FluxOR) flux as surrogate measurement for potassium into the cells with a FDSS-7000 kinetic plate reader (Hamamatsu Corp., Hamamatsu City, Japan). The hERG ion channel is transduced into mammalian cells (U2OS) using a baculovirus (Bacmam) construct harboring the hERG K+ ion channel. So far we screened LOPAC1280 library (Sigma), the NTP collection of 1408 compounds, and the NCGC Pharmaceutical Collection (NPC), in which many well defined HERG blockers are present. The rank order potencies of many of these compounds are similar to that of other HERG assays (membrane potential, Rb+ flux, patch clamp, etc). This quick and homogeneous assay is also found to be sensitive, specific, and robust.
Using the FluxORTM thallium flux assay, the activity of potassium channel using thallium dye (FluxOR) flux as surrogate measurement for potassium into the cells was measured in the U2OS cell line transduced with hERG K+ ion channel using a baculovirus (Bacmam) using Opti-MEM medium (Invitrogen) containing 2% fetal calf serum (FCS, HyCone) following loading buffer addition, compound treatment for around 10 minutes and finally adding stimulation buffer. The assay was performed in black clear Kalypsys 1536-well plates. In the screen, Astemizole was used as positive controls. Library compounds were measured for their ability to cause hERG channel blockage in the cell line, as reflected by a decrease in fluorescence intensity, in a concentration-dependent manner. […] AC50 values were determined from concentration-response data modeled with the standard Hill equation.
qHTS protocol for hERG-U2OS cellular assay
[Step] [Parameter] [Value] [Description]
1. Day 1: Replace medium in 70-80% confluent T225 flask with 2.5 mL of hERG-BacMam virus plus 12.5 mL of phosphate buffered saline (PBS) (corresponding roughly to a multiplicity of infection ratio of 100 virus particles/cell)
2. Incubation: 4 hrs @ room Temperature in Dark
3. Reagent; Remove virus; wash once with 25 ml DPBS
4. Reagent; 35 ml culture medium
5. Incubation; 37 °C overnight
6. Day2: Reagent; 3 uL; 2000 U2OS cells/well
7. Time; 4 hr; 37 °C incubation
8. Loading buffer; 1 uL; 0.7X;
9. Incubation: 1hr @ RT in Dark.
12. Time; 10min; 37 °C incubation
13. Read fluorescence Intensity on FDSS for 10 Sec with 1 sec interval
14. Reagent; 1 uL; stimulation buffer
15. Read fluorescence Intensity on FDSS for 2 min with 1 sec interval
16. Detection; Fluorescence Intensity; FDSS
In the case of `CCS(=O)(=O)CCn1c([N+](=O)[O-])cnc1C`, the Potency is reported as inconclusive [inhibitor, single point].
For `Cc1cc2c(OCC(CNC(C)(C)C)OC(=O)c3ccccc3)cccc2[nH]1` (configuration not stated), the Potency was inconclusive [inhibitor, full curve].
`[Cl][In]([Cl])[Cl]` was tested, and the Potency was inconclusive [inhibitor, single point].
`NS(=O)(=O)c1cc2c(cc1C(F)(F)F)NC(Cc1ccccc1)NS2(=O)=O` (configuration not stated) was tested, and the Potency was inconclusive [inhibitor, single point].
`Clc1cc(Cl)c(OCC#CI)cc1Cl` was tested, and the Potency was inconclusive [inhibitor, single point].
With `C1CCN2C[C@@H]3C[C@@H](CN4CCCC[C@@H]34)[C@H]2C1` the Potency was inconclusive [inhibitor, single point].
For `CN1CCN(CCC(=O)N2c3ccccc3Sc3ccc(C(F)(F)F)cc32)CC1`, the Potency was inconclusive [inhibitor, partial curve, poor fit].
`CCOc1ccc(C(=O)OCCN(CC)CC)cc1` was tested, and the Potency was inconclusive [inhibitor, partial curve, poor fit].
For `O=C(CN1CCN(Cc2ccc3c(c2)OCO3)CC1)N1c2ccccc2Sc2ccccc21`, the Potency was active: 2.51 µM.
In the case of `CCC1Nc2cc(Cl)c(S(N)(=O)=O)cc2S(=O)(=O)N1` (configuration not stated), the Potency is reported as inconclusive [inhibitor, single point].
`CCCCN(CCCC)CCCOC(=O)c1ccc(N)cc1` was tested, and the Potency was inconclusive [inhibitor, partial curve, poor fit].
`OCC(O)CN1CCN(c2ccccc2)CC1` (configuration not stated) was tested, and the “activity change, negative = inhibition” value was inactive: 7.86%.
For `C[C@@H]1CCC[C@H](C)N1`, the “activity change, negative = inhibition” value was inactive: -0.141% [at 20.6 µM].
In the case of `Clc1cccc(C(c2ccc3nc[nH]c3c2)n2ccnc2)c1` (configuration not stated), the Potency is reported as inconclusive [inhibitor, partial curve, poor fit].
For `C[C@@H]1O[C@@H](OC[C@H]2O[C@@H](Oc3c(-c4ccc(O)c(O)c4)oc4cc(O)cc(O)c4c3=O)[C@H](O)[C@@H](O)[C@@H]2O)[C@H](O)[C@H](O)[C@H]1O`, the “activity change, negative = inhibition” value was inactive: -2.08%.
In the case of `CN1C(=O)CC(c2ccccc2)C1=O` (configuration not stated), the “activity change, negative = inhibition” value is reported as inactive: 10.2%.
In the case of `Cn1cc(C(=O)[C@@H]2CCc3nc[nH]c3C2)c2ccccc21`, the Potency is reported as inconclusive [inhibitor, partial curve, poor fit].
In the case of `CCOC(=O)c1c(N)sc2c1CCN(Cc1ccccc1)C2`, the Potency is reported as inconclusive [inhibitor, partial curve].
With `O=C(NC1CCN(CCc2c[nH]c3ccccc23)CC1)c1ccccc1` the Potency was active: 0.891 µM.
In the case of `CC(C)(C)C(=O)C(Oc1ccc(Cl)cc1)n1ccnc1` (configuration not stated), the Potency is reported as inconclusive [inhibitor, single point].
With `CC(=O)Nc1ccc(C(=O)O)cc1` the Potency was “inactive”.
For `CCCCNc1ccc(C(=O)OCCN(C)C)cc1`, the Potency was inconclusive [inhibitor, partial curve, poor fit].
With `O=C(Nc1ccc(Br)cc1)c1cc(Br)c(Br)s1` the Potency was inconclusive [inhibitor, single point].
`O=C(O)CN(CCN(CC(=O)O)CC(=O)O)CCN(CC(=O)O)CC(=O)O` was tested, and the Potency was inconclusive [inhibitor, single point].
For `COc1cc2c(cc1OC)C(C(C(=O)N(CCc1ccc(OC)c(OC)c1OC)CCc1ccc(OC)c(OC)c1OC)c1ccccc1)=NCC2` (configuration not stated), the Potency was inconclusive [inhibitor, partial curve, poor fit].
With `COc1ccc(C(=O)c2ccccc2)c(O)c1` the Potency was active: 35.5 µM.
In the case of `CN(C)CCc1c[nH]c2ccc(CS(=O)(=O)N3CCCC3)cc12`, the Potency is reported as inconclusive [inhibitor, partial curve, poor fit].
For `CC[C@]12CCCN3CCc4c(n(c5ccccc45)[C@@](O)(C(=O)OC)C1)[C@@H]32`, the Potency was active: 0.398 µM.
For `CNCCc1ccccn1`, the Potency was inconclusive [inhibitor, full curve].
For `C=CCOc1ccccc1OCC(O)CNC(C)C` (configuration not stated), the Potency was inconclusive [inhibitor, single point].
`C[C@]12CC[C@@H]3c4ccc(OC(=O)c5ccccc5)cc4CC[C@H]3[C@@H]1CC[C@@H]2O` was tested, and the Potency was inconclusive [inhibitor, partial curve].
For `CC(C)(C)C(=O)OCC(=O)[C@H]1CC[C@H]2[C@@H]3CCC4=CC(=O)CC[C@]4(C)[C@H]3CC[C@]12C`, the Potency was inconclusive [inhibitor, partial curve].
With `Oc1ccccc1C=NCc1ccccc1` the Potency was inconclusive [inhibitor, single point].
For `Cc1cc(CC(=O)O)c(C)n1-c1ccc(Cl)cc1`, the Potency was inconclusive [inhibitor, single point].
With `CCOC(=O)c1cnc2c(cnn2CC)c1NN=C(C)C` the “activity change, negative = inhibition” value was inactive: 5.62%.
For `CC(=O)NS(=O)(=O)c1ccc(N)cc1`, the Potency was inconclusive [inhibitor, single point].
With `C[C@H]1O[C@@H](n2cc(F)c(=O)[nH]c2=O)[C@H](O)[C@@H]1O` the Potency was “inactive”.

Source: PubChem BioAssay (NCATS)
% is set by controls: 0 for no effect and ±100 for the full control effect; potency is the fitted concentration of half-maximal effect; tags give direction and shape of the fitted curve.
